# From patent US20170247431A1 (OMEROS, published 2017)
# T1: human MASP-1 (human, UniProt P48740 20-699)
# T1 sequence: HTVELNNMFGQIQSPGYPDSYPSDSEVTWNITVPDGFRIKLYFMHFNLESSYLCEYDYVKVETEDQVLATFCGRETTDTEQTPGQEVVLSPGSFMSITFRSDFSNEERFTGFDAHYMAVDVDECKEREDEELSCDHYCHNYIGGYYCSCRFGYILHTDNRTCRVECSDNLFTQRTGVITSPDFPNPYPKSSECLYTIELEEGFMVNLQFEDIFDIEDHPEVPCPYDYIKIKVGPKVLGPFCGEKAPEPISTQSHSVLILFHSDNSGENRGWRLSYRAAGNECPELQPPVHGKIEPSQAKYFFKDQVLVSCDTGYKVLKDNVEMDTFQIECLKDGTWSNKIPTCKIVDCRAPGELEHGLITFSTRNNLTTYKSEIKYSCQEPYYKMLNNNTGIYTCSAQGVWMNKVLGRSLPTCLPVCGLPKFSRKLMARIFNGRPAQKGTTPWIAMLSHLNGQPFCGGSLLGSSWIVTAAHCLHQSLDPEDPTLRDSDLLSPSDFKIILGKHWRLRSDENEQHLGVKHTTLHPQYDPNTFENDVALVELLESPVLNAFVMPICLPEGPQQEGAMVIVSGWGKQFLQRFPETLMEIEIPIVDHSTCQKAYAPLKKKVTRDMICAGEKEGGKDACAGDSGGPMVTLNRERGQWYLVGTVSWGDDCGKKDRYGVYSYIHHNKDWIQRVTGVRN
# Key:
# human MASP-1 = target: T1, human MASP-1; assay: cell-based or functional assay
# human MASP-2 = human MASP-2 (human, UniProt O00187 16-686); assay: cell-based or functional assay
# Sequence of human MASP-2 (O00187 16-686 limits assumed): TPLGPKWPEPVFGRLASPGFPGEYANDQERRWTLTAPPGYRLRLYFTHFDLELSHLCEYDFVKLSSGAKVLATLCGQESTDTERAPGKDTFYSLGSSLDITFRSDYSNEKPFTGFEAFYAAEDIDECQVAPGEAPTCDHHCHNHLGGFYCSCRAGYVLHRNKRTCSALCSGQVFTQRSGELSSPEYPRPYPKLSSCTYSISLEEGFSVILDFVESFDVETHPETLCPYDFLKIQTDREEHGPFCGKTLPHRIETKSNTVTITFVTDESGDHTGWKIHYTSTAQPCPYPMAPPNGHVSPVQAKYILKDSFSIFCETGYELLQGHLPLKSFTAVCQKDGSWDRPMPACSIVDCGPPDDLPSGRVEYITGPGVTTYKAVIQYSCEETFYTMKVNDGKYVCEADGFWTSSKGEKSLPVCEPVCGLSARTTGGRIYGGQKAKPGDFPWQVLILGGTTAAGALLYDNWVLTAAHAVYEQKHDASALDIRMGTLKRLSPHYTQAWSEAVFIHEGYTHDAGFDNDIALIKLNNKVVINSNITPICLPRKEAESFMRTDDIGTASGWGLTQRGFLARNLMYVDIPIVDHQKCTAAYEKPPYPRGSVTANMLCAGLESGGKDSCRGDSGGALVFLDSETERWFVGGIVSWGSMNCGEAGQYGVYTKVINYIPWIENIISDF
Binder,IC50 of inhibition of C3b deposition from 1% normal human serum in mannan-coated ELISA wells (human MASP-1) [nM],IC50 of inhibition of C3b deposition from 1% normal human serum in mannan-coated ELISA wells (human MASP-2) [nM]
SGMI-1Fc (Fc fusion) LEVTCEPGTTFKDKCNTCRCGSDGKSAFCTRKLCYQGTGGGSGSSSRS[human IgG1 Fc not written out],~27,
SGMI-2Fc (Fc fusion) LEVTCEPGTTFKDKCNTCRCGSDGKSAVCTKLWCNQGTGGGSGSSSRS[human IgG1 Fc not written out],,~300
